Among all 94,000 compounds or so, about 4,000 (4.3%) were called active. Inconclusive results, whose numbers are uncertain, are shown with a selection of clear calls. Calls come from the whole dose curve; as a rule, active = well fitted inhibition curve with a large enough effect; inconclusive = small, poorly fitted or top-dose-only effect; inactive = no such curve, though single readings can be large or run the other way. A potency beside an inconclusive call is a rough fit, not a confirmed value.
Assay: Cytotoxic Profiling in NIH 3T3 Cell Line of Diverse Libraries Using Quantitative High-Throughput Screening; note: nearly all actives have a fitted effect of over 55% in size
Conditions: NIH 3T3 viability, CellTiter-Glo ATP luminescence, 48-72 h; activity change, negative = cytotoxicity: at 96.7 µM (top of the series) unless noted; series mostly up to 96.7 µM
In short: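 Mouse fibroblast NIH 3T3 cells, 400 per well, received compound via pintool and were incubated for 48 or 72 hr prior to CellTiter-Glo ATP luminescence measurement.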
% is set by controls: 0 for no effect and ±100 for the full control effect; potency is the fitted concentration of half-maximal effect; tags give direction and shape of the fitted curve.

SMILES	Potency	activity change, negative = cytotoxicity
COc1cccc(CN2C[C@@H]3C[C@H]2C(=O)N(Cc2ccccc2)c2ccccc2O3)n1	inconclusive: 100 µM [inhibitor, single point]	
Cc1noc(C)c1[S+](=O)([O-])N1CCC2(CC1)CC(=O)c1ccc(Cl)cc1O2	inconclusive: 44.7 µM [inhibitor, partial curve]	
C[S+](=O)([O-])CCn1ncc2cc(OCc3cccc(-c4ccccc4O)c3)ccc21	inconclusive: 50.1 µM [inhibitor, partial curve, poor fit]	
CC(C)NC(=O)N1CCC(C(=O)N2CCCC(c3nc4ncccc4[nH]3)C2)CC1 (stereo unspecified)		inactive: -6.48%
COC[C@@H]1OC[C@@]2(C)C3CC[C@@H](O)[C@@H](CC(=O)N4CCC(C)CC4)[C@]3(C)CC[C@H]2O1 (stereo partly specified)		inactive: -15.7% [at 174 µM]
COC1CN(c2cccc(F)c2)C12CCN(C(=O)CC1CCCC1)CC2 (stereo unspecified)	inconclusive: 50.1 µM [inhibitor, partial curve, poor fit]	
O=C(NCc1cccc(F)c1)C1CCN(C(=O)c2ccc(-c3cncnc3)cc2)CC1	inconclusive: 35.5 µM [inhibitor, partial curve, poor fit]	
CCn1cc(-c2ccncc2)cc1C(=O)NCc1ccc(OC(C)C)cc1	inconclusive: 50.1 µM [inhibitor, partial curve, poor fit]	
COc1ccc(C)cc1NC(=O)Cn1c(N2CCc3ccccc3C2)nc(C)cc1=O		inactive: -3.55%
COc1cccc(CNC(=O)c2c(C)noc2-c2ccccc2Cl)c1	inconclusive: 56.2 µM [inhibitor, partial curve, poor fit]	
Cc1ccsc1C(=O)NC1CCN(c2cc(-c3ccc(F)cc3)[nH]n2)C1 (stereo unspecified)	inconclusive: 50.1 µM [inhibitor, partial curve, poor fit]	
CCc1noc([C@@H]2CC(F)(F)CN2C(=O)c2ccc(F)cn2)n1		inactive: -0.673%
O=C(c1ccc2c(c1)OCO2)N1CCC2(CC1)C(=O)Nc1ccccc12		inactive: -2.72%
CCS(=O)(=O)N1CCC2(CC1)CN(c1cccc(F)c1)C2c1ccccc1 (stereo unspecified)	inconclusive: 39.8 µM [inhibitor, partial curve, poor fit]	
COc1ccccc1-c1cccc(C(=O)N2CCC[C@H]2C(=O)NC(C)C)c1		inactive: -31.3%
Cc1ccc(CNC(=O)CC2CCCN(c3cnn(CC4CC4)c(=O)c3)C2)cc1C (stereo unspecified)	inconclusive: 50.1 µM [inhibitor, partial curve, poor fit]	
O=C1NCCCCCCN(S(=O)(=O)c2cccc3cccnc23)[C@H]2CCC[C@@H]12		inactive: -9.9%
O=C(NC1CCN(c2cc(-c3cccs3)[nH]n2)CC1)c1ccc(Cl)cc1	inconclusive: 28.2 µM [inhibitor, full curve, poor fit]	
Cc1ccc(CSc2nc(N)cc(N3CCN(CCCO)CC3)n2)cc1	inconclusive: 56.2 µM [inhibitor, partial curve, poor fit]	
CCCOc1ccc(-c2nc3ccc(-c4ccc(OC)c(OC)c4OC)cc3o2)cc1	inconclusive: 35.5 µM [inhibitor, partial curve]	
CC(C)c1nc2c(c(-c3ccc(O)cc3)n1)CN(Cc1ccsc1)CC2	inconclusive: 70.8 µM [inhibitor, single point]	

SMILES	Potency	activity change, negative = cytotoxicity
Cc1oc2ccn(Cc3ccc(F)cc3)c(=O)c2c1C(=O)NCc1cc(F)ccc1F	inconclusive: 28.2 µM [inhibitor, full curve]	
CCCc1nc(C(=O)N(C)CCCc2cnn(C)c2)cs1		inactive: 4.99%
COc1cccc(-c2cccc(C(=O)N3CCCC3C(=O)NCc3cccc(F)c3)c2)c1 (stereo unspecified)	inconclusive: 44.7 µM [inhibitor, partial curve, poor fit]	
O=C1CCN(S(=O)(=O)c2ccccc2)CCCN(Cc2ccc3cc[nH]c3c2)CCN1	inconclusive: 44.7 µM [inhibitor, partial curve, poor fit]	
COc1cccc(CNC(=O)c2ccc3c(c2)N(C(=O)c2ccc(F)cc2)CC3)c1	inconclusive: 50.1 µM [inhibitor, partial curve, poor fit]	
O=[S+]([O-])(NCC1CN(Cc2ccc3[nH]ccc3c2)CC12CN(c1ccccc1)C2)c1ccccc1 (stereo unspecified)	active: 22.4 µM	
Cc1nnc2ccc(N3CCCN(C(=O)Cc4ccc(F)cc4)CC3)nn12		inactive: -13.9%
O=C(Nc1cccc(C(F)(F)F)c1)O[C@@H]1CO[C@H]2[C@@H]1OC[C@@H]2NC(=O)c1ccccc1	inconclusive: 44.7 µM [inhibitor, partial curve, poor fit]	
CCN1C(=O)CN(C(=O)C2CCCCC2)CC12CCOCC2		inactive: -27.5%
COc1cccc(S(=O)(=O)N2CCC(N(C(C)=O)C3CCOCC3)CC2)c1	inconclusive: 56.2 µM [inhibitor, partial curve, poor fit]	
N#CC1CCN(C(=O)C2CCN(Cc3ccccc3-c3ccccc3F)CC2)CC1	inconclusive: 56.2 µM [inhibitor, partial curve, poor fit]	
COCC(=O)N1CCC2(CC1)CC(N1CCN(c3ccccn3)CC1)CCO2 (stereo unspecified)		inactive: -18.2%
COc1ccccc1-c1cc(C(=O)NCc2cccnc2)nn2cccc12	inconclusive: 44.7 µM [inhibitor, partial curve, poor fit]	
CCN(CC)C(=O)CCC1CCN(C(=O)c2ccccc2Cl)CC1	inconclusive: 56.2 µM [inhibitor, partial curve, poor fit]	
COCCn1ccc2c(C3=CCOCC3)nc(-c3cccc(N[S+](C)(=O)[O-])c3)cc21	active: 35.5 µM	
Cc1nc(C)c(C(=O)N2CC[C@H](N3CCN(C)CC3)[C@H](CCC(=O)O)C2)o1		inactive: -1.64%
COc1ccc(Nc2ccnc(N3CCC(NC(=O)c4cccc(Cl)c4)CC3)n2)cc1	active: 28.2 µM	
CCn1ncc(NC(=O)Cn2ncc3cc(-c4cccc(C#N)c4)ccc32)n1	inconclusive: 17.8 µM [inhibitor, full curve, poor fit]	
COCC(=O)NC1CCN(c2ccc3nnc(C4CC4)n3n2)CC1		inactive: -3.02% [at 138 µM]
COc1ccccc1CCC(=O)N1CCCC2(C1)Nc1cccnc1NC2=NC1CCCC1 (stereo unspecified)	inconclusive: 50.1 µM [inhibitor, single point]	
